Test results published in paper PMC4336329 (PLoS ONE, 2015).
Screen size: about 310,000 compounds; about 2,200 (0.71%) showed an effect of 50% or more. The effect is printed as a negative number. The list shows a part of the results.

molecular target: human ether-à-go-go-related gene (hERG) potassium channel (human, UniProt Q12809); assay: primary screen, population patch clamp on CHO cells stably expressing hERG
Sequence (Q12809 whole entry, looked up): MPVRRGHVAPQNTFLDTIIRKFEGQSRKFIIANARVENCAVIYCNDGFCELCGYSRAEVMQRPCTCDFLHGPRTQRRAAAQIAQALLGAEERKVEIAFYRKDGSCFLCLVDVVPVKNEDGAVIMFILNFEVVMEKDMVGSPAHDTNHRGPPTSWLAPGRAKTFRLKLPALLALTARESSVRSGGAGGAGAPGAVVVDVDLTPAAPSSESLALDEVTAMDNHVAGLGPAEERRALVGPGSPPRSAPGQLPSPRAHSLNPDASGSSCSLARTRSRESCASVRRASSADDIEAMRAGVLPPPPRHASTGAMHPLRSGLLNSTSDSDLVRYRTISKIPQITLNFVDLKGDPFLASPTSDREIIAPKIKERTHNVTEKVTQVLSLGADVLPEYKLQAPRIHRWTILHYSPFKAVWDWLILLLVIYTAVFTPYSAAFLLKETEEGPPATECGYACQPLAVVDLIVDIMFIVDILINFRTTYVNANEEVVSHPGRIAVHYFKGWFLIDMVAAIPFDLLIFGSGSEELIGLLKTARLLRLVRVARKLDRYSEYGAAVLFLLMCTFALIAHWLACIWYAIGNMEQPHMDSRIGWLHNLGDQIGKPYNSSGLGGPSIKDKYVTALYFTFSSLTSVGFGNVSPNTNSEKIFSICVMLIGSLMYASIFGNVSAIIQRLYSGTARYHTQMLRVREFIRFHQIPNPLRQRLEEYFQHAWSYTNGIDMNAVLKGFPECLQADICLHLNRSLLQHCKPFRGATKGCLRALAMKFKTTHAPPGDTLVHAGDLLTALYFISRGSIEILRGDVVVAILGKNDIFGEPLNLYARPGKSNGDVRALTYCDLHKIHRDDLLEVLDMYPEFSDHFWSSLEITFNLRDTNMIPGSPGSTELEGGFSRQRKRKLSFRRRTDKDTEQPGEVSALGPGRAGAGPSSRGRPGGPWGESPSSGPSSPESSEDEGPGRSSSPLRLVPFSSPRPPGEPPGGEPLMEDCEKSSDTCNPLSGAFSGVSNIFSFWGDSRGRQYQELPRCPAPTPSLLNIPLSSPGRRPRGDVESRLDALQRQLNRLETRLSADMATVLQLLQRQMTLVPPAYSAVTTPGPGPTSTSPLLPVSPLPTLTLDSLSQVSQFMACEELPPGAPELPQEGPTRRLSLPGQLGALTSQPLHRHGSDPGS

SMILES	hERG current change (%, negative = inhibition) at 1uM
Cc1ccc(/C(N)=N/OC(=O)c2cccc(Cn3cc(C(F)(F)F)ccc3=O)c2)cc1	11.6%
COc1ccc(C)cc1S(=O)(=O)N(CC(=O)O)c1ccc(F)cc1	13.1%
CCOC(=O)CNC(=O)/C(=C\c1ccc(F)cc1)NC(=O)c1ccccc1	-11.7%
N#Cc1ccc(COC(=O)c2cnc3ccccc3n2)cc1	6.75%
O=C(COC(=O)c1ncc(Cl)c(Cl)c1Cl)Nc1ccccc1OC(F)F	8.65%
Cc1ccc(-c2ccc(=O)n(CCC(=O)NCCN3CCCCC3C)n2)cc1 (stereo not drawn)	-36.2%
COc1ccc(/C=C/C(=O)OCC(=O)NC(=O)NC(C)(C)C)cc1	16.1%
COc1ccc(-c2nc(S(=O)(=O)c3ccccc3)c(N3CCOCC3)o2)cc1	20.7%
O=C(c1ccc(OC2CCN(Cc3cccc(F)c3)CC2)cc1)N1CCCCC1	-3.05%
CCNC(=S)Nc1ccc(N2CCCCC2)cc1	10.7%
O=C(COC(=O)COc1ccc2c(c1)CCC2)Nc1ccccc1	5.57%
O=C(CCC(=O)N1CCCC(Nc2ccccc2)C1)c1ccc(F)cc1 (stereo not drawn)	9.44%
COCC(=O)N1CCC(Oc2ccc(C(=O)NCCc3ccncc3)cc2)CC1	7.62%
Cc1ccc(SCC(=O)OCC(=O)N(CC(C)C)c2c(N)n(Cc3ccccc3)c(=O)[nH]c2=O)c(C)c1	4.52%
Oc1oc(-c2ccccc2)nc1/C=N/c1nccs1	8.14%
O=C(COC(=O)c1ccc[nH]c1=O)Nc1ccc2c(c1)OC(F)(F)O2	9.4%
N#Cc1c(-c2cccs2)nc(SCC(=O)c2ccc(Br)cc2)[nH]c1=O	10.3%
O=C(COC(=O)c1cccc(S(=O)(=O)NCc2ccccc2)c1)Nc1ccccc1OC(F)F	12.5%
COc1cc(C(=O)c2nccc3cc(OC)c(OC)cc23)c([N+](=O)[O-])cc1OC	4.84%
O=C(c1ccccc1)N(Cc1nc2ccccc2c(=O)[nH]1)C1CCCC1	9.24%
Cc1ccc(CNC(=O)c2ccc[nH]2)cc1	3.06%
O=C(Nc1ccc(Cl)cc1)C1c2cccc[n+]2CC(=O)N1Cc1ccc2c(c1)OCO2.[I-] (stereo not drawn)	-2.51%

SMILES	hERG current change (%, negative = inhibition) at 1uM
COc1ccc(NC(=O)Nc2ccc(OC)cc2)cc1	-4.01%
Clc1ccc(-c2ccnc(-n3cccc3)n2)s1	13.5%
C=CCn1c(CCNC(=O)c2cccs2)nnc1SCC(=O)Nc1cccc(C(C)=O)c1	5.75%
COC(=O)CC#N	9.76%
O=C(NCCCO)C(=O)c1c(-c2ccccc2)cc2ccccn12	15%
CCn1c(SCC(=O)Nc2ccc(NC(C)=O)cc2)nnc1C1CC1	13.7%
CCOc1ccc(NC(=O)CCC(=O)c2ccc(F)cc2)cc1	13.3%
Cc1cc(C)c(S(=O)(=O)N2CCN(C(=O)N3CCOCC3)CC2)c(C)c1	13.6%
COc1cccc(/C=N/Nc2ncc(C(F)(F)F)cc2Cl)c1O	19.2%
Cc1ccc(-c2cc(C(=O)Nc3cnn(C45CC6CC(CC(C6)C4)C5)c3)no2)cc1	5.94%
CCOC(=O)c1c(C)n(C)c2ccc(OC)c([N+](=O)[O-])c12	6.83%
COC(=O)COn1c(SC(C)C)nc2ccccc2c1=O	-3.55%
Cn1ncc2c(Nc3ccc4ccccc4c3)ncnc21	9.92%
O=C1NC(NS(=O)(=O)c2ccccc2)(C(F)(F)F)C(=O)N1c1ccc(F)cc1 (stereo not drawn)	7.82%
CCCc1c(C)nc2c(Br)cccc2c1Cl	9.82%
COC(C/C=C/C(=O)[C@@H](C)OCc1ccccc1)OC	12%
O=c1oc(Nc2ccc(F)cc2)nc2ccccc12	4.75%
O=S(=O)(c1ccc(Br)s1)N1CCN(CCOc2ccccc2)CC1	5.99%
COc1ccc(-c2c(C#N)c(N)nc3sc(C(=O)c4ccccc4)c(N)c23)cc1	7.67%
CN(Cc1ccon1)C(=O)C1CCC(=O)N(Cc2ccc(Cl)cc2)C1 (stereo not drawn)	-20.6%
COc1cc(OC)c(NC(=O)C2CC(=O)N(c3ccc4c(c3)OCCO4)C2)cc1Cl (stereo not drawn)	5.97%
Cc1ccc(C(=O)NCC(=O)OCC(=O)NC2CCCCCCC2)cc1	-4.25%

SMILES	hERG current change (%, negative = inhibition) at 1uM
Cc1ccc2nc(-c3ccccc3NC(=O)CCC(=O)O)c(=O)[nH]c2c1	13.1%
CCO[C@@H]1OC(C(=O)N2CCN(Cc3ccc4c(c3)OCO4)CC2)=C[C@H](c2ccc(Br)cc2)[C@H]1CCCO	1.19%
COc1cc(Br)c(CNc2cc(C)ccc2C)cc1OC.O=C(O)C(=O)O	14%
C/C(=N\NC(=O)c1cc([N+](=O)[O-])cc([N+](=O)[O-])c1)c1ccco1	8.74%
NS(=O)(=O)c1cccc(NC(=O)COC(=O)CC2CC3CCC2C3)c1 (stereo not drawn)	1.5%
CC(=O)Nc1ccc(S(=O)(=O)N2CCN(c3nc(C)cc(C)n3)CC2)cc1	14.9%
Cc1ccc(N2C(=O)CSC23C(=O)Nc2ccccc23)cc1 (stereo not drawn)	2.82%
CC(=O)n1cc([C@@H]2C=C(C(=O)N3CCN(Cc4ccc5c(c4)OCO5)CC3)O[C@H](OCc3ccc(CO)cc3)C2)c2ccccc21	6.66%
Cn1nnnc1SC(C(=O)Nc1cccc(C(F)(F)F)c1)c1ccccc1 (stereo not drawn)	9.74%
CC(=O)Nc1ccc(NC(=O)CN(c2ccccc2Cl)S(C)(=O)=O)cc1	10%
CC(C)c1[nH]nc2c1C(c1ccc(OC(=O)c3ccco3)cc1)C(C#N)=C(N)O2 (stereo not drawn)	13.1%
N#Cc1cccc(NC(=O)CN2CCCCCC2)c1	8.66%
CC(=O)N1CC(c2ccccc2)C(c2ccc(Cl)cc2)=N1 (stereo not drawn)	11.6%
O=C(Nc1ccc2c(c1)OCO2)C1CCCCC1	-1.12%
CC(C)(C)c1ccccc1OCCOCCNCc1ccccc1.O=C(O)C(=O)O	6.67%
COCCCNC(=O)c1ccc(C(=O)NCCCOC)cc1	-0.0011%
CCN(CC)C(=O)c1oc2ccc(S(=O)(=O)N3CC(C)CC(C)C3)cc2c1C (stereo not drawn)	12.9%
O=c1oc2cc(Oc3ccc(C(F)(F)F)cc3[N+](=O)[O-])ccc2c2c1CCC2	5.4%
CC1CN(S(=O)(=O)c2ccc(NC(=O)c3cc(-c4ccccc4O)n[nH]3)cc2)CC(C)O1 (stereo not drawn)	12%
CCc1nn(CC(=O)NCCc2ccc(Cl)cc2)c(=O)c2cccn12	0.907%
COc1cccc(/C=N/NC(=O)c2ccc(=O)n(C)c2)c1OC	16.6%
Nc1c(Cl)c(Cl)nc(C(=O)OCC(=O)NCc2ccccc2)c1Cl	10.7%

SMILES	hERG current change (%, negative = inhibition) at 1uM
C=CCN=Cc1sc2ccc(OCC)cc2c1O	14.9%
O=C(CCNS(=O)(=O)c1cccc2nonc12)Nc1ccc(Cl)cc1	10.1%
O=C(NCc1ccc(F)cc1)C(=O)Nc1nc(C23CC4CC(CC(C4)C2)C3)cs1	8.67%
CNC(=S)N(Cc1ccc2c(c1)OCO2)C1CC(=O)N(c2ccccc2)C1=O (stereo not drawn)	3.61%
COC(C)(C)[C@]12CC(O)(C(C)C)ON1[C@H]1CCCCC1N2O (stereo partly drawn)	14.2%
Oc1ccc(-c2nc3ncccn3c2Nc2ccc3c(c2)OCCO3)cc1	-0.353%
Cc1csc2nc(CSc3nc4ccccc4o3)c(Br)n12	15.9%
Cc1cc(C)c(C)c(C(=O)C2OC(=O)C(C)(C)C(=O)C2(C)C)c1C (stereo not drawn)	7.42%
Oc1ccc(Br)cc1-c1cc(-c2ccccc2Cl)[nH]n1	12.4%
O=C1Nc2ccccc2C1Cc1ccccn1 (stereo not drawn)	11.5%
Cc1nc2ccc3nc(NC(=O)c4ccc(S(=O)(=O)N5CCOCC5)cc4)sc3c2s1	5.54%
CC(Oc1c(Cl)cccc1Cl)C1=NCCN1.Cl (stereo not drawn)	10.4%
O=C(c1cc2nc(-c3ccco3)cc(C(F)(F)F)n2n1)N1CCN(c2ccccn2)CC1	2.13%
Nc1ccccc1NC1=CC(=O)CC(c2ccccc2)C1 (stereo not drawn)	6.33%
CCC(C(=O)OCC(=O)N(C)c1c(N)n(Cc2ccccc2)c(=O)[nH]c1=O)c1ccccc1 (stereo not drawn)	15.6%
C=CCn1c(SCC(=O)N2CCCCC2)nnc1-c1ccncc1	5.93%
CCc1ccc(N(C(=O)c2snc(C(N)=O)c2N)C(C(=O)NCC2CCCO2)c2ccco2)cc1 (stereo not drawn)	5.88%
CCOC(=O)C1CCCN(S(=O)(=O)c2cc(Br)cc3c2N(C(=O)CC)CC3)C1 (stereo not drawn)	12%
Cc1nc(-c2ccccc2)nc2[nH]c(-c3ccccc3)cc(=O)c12	-1.19%
CCN1CCc2c(OCc3ccc(C)cc3)cccc2C1=O	1.27%
COCCN(CCOC)S(=O)(=O)c1ccc(OC)cc1	14.9%
